Over roughly 33,000 sequences, “E-score (-0.5 to 0.5)” has its median near -0.032; the highest 2% begin near 0.36. The list shows a part of the results.
What follows are sequences tested against T1, Sko1 (UniProt Q02100) (assay: PBM E-score (8-mer binding enrichment) (E-score (-0.5 to 0.5)); higher = stronger / more preferred TF binding; most listed sequences are background and not binding sites). Conditions: protein concentration: 200 nM; construct: GST-full length.
T1 sequence: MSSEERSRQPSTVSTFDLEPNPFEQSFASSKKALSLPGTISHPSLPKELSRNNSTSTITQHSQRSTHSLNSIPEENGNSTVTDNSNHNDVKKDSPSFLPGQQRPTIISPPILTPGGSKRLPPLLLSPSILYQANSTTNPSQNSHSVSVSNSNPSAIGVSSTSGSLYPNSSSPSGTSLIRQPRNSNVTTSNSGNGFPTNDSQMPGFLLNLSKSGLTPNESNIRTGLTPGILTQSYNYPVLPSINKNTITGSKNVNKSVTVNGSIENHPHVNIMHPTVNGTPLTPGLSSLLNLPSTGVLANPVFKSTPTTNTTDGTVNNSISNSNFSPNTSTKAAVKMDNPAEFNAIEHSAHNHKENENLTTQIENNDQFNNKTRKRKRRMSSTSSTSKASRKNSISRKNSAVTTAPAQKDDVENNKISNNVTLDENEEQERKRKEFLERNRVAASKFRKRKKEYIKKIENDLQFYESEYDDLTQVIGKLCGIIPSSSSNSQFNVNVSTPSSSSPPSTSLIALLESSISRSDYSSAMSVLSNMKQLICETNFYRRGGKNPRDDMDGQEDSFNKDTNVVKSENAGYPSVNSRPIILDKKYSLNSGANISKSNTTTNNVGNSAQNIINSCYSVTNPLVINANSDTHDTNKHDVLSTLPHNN
Procedure, shortened: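 Using PURExpress in vitro transcription/translation, GST-tagged yeast transcription factors were made in full-length or DNA-binding-domain form. These were applied at about 100-200 nM to double-stranded universal all-10-mer Agilent arrays, and bound protein was detected with fluorescent anti-GST. Scans were normalised with masliner before the Universal PBM Analysis Suite assigned E-scores to ungapped eight-base words pooled with their reverse complements.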

Sequence	PBM E-score
CGATGGGA	-0.0417
ACACCTGG	-0.173
GAAGGTCC	-0.0613
ATGGTTCG	-0.045
GGTCAATA	-0.0209
ACGTACAG	0.415
ACGACGCG	0.148
GCAGCAGC	-0.136
GCACATCA	0.243
TAGACTAA	-0.023
AGGAGATG	-0.109
CACTGTGG	-0.226
GGGCCAAA	-0.155
CGTTGATA	0.0932
GTTCCAGA	-0.0401
ATTCAATC	0.0562
CCGGAAGA	-0.197
AGTAAGGC	-0.0198
GAGTTGGC	-0.093
CCCCAATA	0.00031
AAACCATC	0.00731
AACCGACG	0.153
AGTTCTAA	-0.00262
AGTGACTC	-0.0159
CATACGCC	0.182

Sequence	PBM E-score
ACCACGCA	0.22
CTAGTGTC	-0.191
AATTAATT	0.244
AGGACGTG	0.153
GTTCTCGA	0.117
AGGCCCCC	-0.414
GTTCGATA	0.105
TAAGTCGA	-0.0795
ATCCGGGC	-0.189
AATCCCCG	-0.246
AAAGGTCC	-0.147
AGAGAGTG	-0.246
ACCTTGGA	-0.0689
CTGGATAA	-0.0232
GCTTTTTA	-0.0182
ACTTATGA	0.142
ACGTGAGA	0.286
ACCTCCAG	-0.264
CGACAGGC	-0.157
ACGGGTAG	-0.0283
ATGTACGA	0.143
CAGGAACG	0.131
AAAAGCGT	-0.00161
AAGCTATC	0.0359
GCCATGAC	0.356

Sequence	PBM E-score
GTAATTCA	0.268
CTGAGAGA	-0.0633
ATCAGTGC	0.0335
GTAACCGA	0.00384
ATGAAGTG	0.0412
ACCGCAAT	-0.00014
CATCTTGC	-0.0884
CCACAGCA	-0.0339
AGCGTAAA	0.189
ATGCTAAA	0.0827
CAAAAATC	0.131
AACACGCG	0.222
AAAATTTG	0.198
GGTGCGTA	0.299
ATGGTGTA	0.161
GGAGCACA	0.00796
AGCGCTCC	-0.146
GCGGATCA	-0.136
TCTCACCA	-0.00275
CATATGCC	0.122
ATTTGCCA	-0.0379
AGATAACT	-0.00913
AAGGGCCC	-0.197
ATCACGCG	0.254
AAAAGGTG	-0.141

Sequence	PBM E-score
ATACTAGG	-0.0879
GATGATAA	0.19
AACTGAGA	-0.0942
ATTCAAGG	-0.169
GGGCAACA	-0.101
CACAAGCA	-0.0467
ACCAGCGT	-0.0826
CCCAATCG	0.0285
AGCGTACA	0.0563
ATCATGGG	-0.172
AGAAGTTA	0.142
AGGCCCGG	-0.385
CCCCCGAG	-0.31
GGTAAGAC	-0.0543
CTCAAATA	0.0986
ACAAGGCC	-0.312
CTTATACA	-0.00768
AGCTGGAT	-0.123
CTGATTTA	0.0612
AAACTGGT	-0.168
CCTTGAAC	-0.131
GACACTGA	0.0601
ACCAATCC	-0.123
GAGTGTAC	0.0578
GTAGCACA	0.074

Sequence	PBM E-score
CACGTCCG	0.0824
AGAGTTTA	0.177
AGAGACAT	-0.106
AGTGACGA	0.419
CGGACGGA	-0.239
GGGGTTAA	-0.243
ATGTTCCG	-0.0811
AACCGGAT	-0.00689
ACAATTAG	0.0266
CCCGCACC	-0.201
GATCATCC	-0.196
CTCGCGCC	-0.288
AGCGACTA	-0.0851
ACATCCTA	0.174
CAAGGCTA	-0.0448
ACTCTTTA	-0.00867
GTGCGTGA	0.274
AATGCGTA	0.39
CCAGCGAC	-0.113
AAAAGACC	-0.0899
CATGCAAC	0.0918
AGTATAGG	-0.199
CTAATAAC	0.28
ATGCCGCC	-0.175
CTTGCATC	-0.136

Sequence	PBM E-score
CTTGCGAA	0.112
ATCGTCGG	-0.177
ACTCGTTC	0.087
ACTGCGTC	0.284
ACGGAAAT	0.226
GAACGCAA	0.18
AACAAAAA	0.168
AGGTTAGG	-0.106
ACCCAGGT	-0.355
GCGAGTCA	-0.0489
CGCAACTC	0.0789
TAGCACCA	0.0572
GTCGAATA	-0.0712
CATAATGG	0.0628
CACAGCGA	0.0659
CCGTTACC	-0.235
AGACGGAG	-0.264
ATACGCTA	0.117
GATATGAA	0.195
ATCTTAGA	0.0246
ATTATGTA	0.398
CACTAATG	0.0154
ACCAGTCT	-0.17
ACTCCCCC	-0.326
ACTTGAAC	0.106

Sequence	PBM E-score
GTGACGCA	0.457
AAGTATAC	0.175
ACGTCTGG	0.331
CGTCTCTC	-0.0438
ACCGGTTG	-0.079
ACTCTTCA	-0.00926
AACTCTTG	-0.0712
AACACGGC	-0.255
AGTCTGGG	-0.218
ATAAGGCC	-0.0706
AGCAATGC	0.0687
AGATGGGA	-0.238
AGTCGATA	-0.0315
AGACAGAT	0.0457
GCGACTCC	-0.224
TGTCATAA	0.325
ATTCCTAA	0.167
CTCTGCAA	-0.0293
AAACGAAG	0.00778
CGACGTTC	-0.0745
GATCAAAA	0.0898
GTGCGCCA	-0.0761

Source: the supplement of paper PMC3334620
